The source gives no read counts; variants with many changes may rest on few reads.
B1: CPEB3 Ribozyme (parent)
chain: UAACAGGGGGCCACAGCAGAAGCGUUCACGUCGCAGCCCCUGUCAGAUUCUGGUGAAUCUGCGAAUUCUGCUGUAUAUCUC

Variants of: B1
Assay: self-cleavage, relative activity (ratio to wild type); higher = more cleavage; in vitro, sequencing
How it was run: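 Relative activity was defined as the cleaved/total read fraction for a variant divided by the same fraction for the unmutated ribozyme. CPEB3 self-cleaving ribozyme libraries were made by rounds of error-prone PCR, barcoded, and transcribed in vitro with T7 RNA polymerase for 5 hours at 37°C, and cleavage ran through transcription plus a 15 min DNase I step before EDTA. Illumina sequencing of template-switched reverse transcripts gave the reads, and DNA sequencing mapped the barcodes. Averages come from three batches, using variants with at least 5 reads.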

| Variant | self-cleavage |
| --- | --- |
| G19A C32A U60C A64G | 0.08 |
| A20G A56G A65U | 0.14 |
| A20G A21U A28U U51A | 0.12 |
| A20C U26C C62U | 0.18 |
| G19A A35G C62A U80A | 0.15 |
| G19U A47G U51A | 0.1 |
| A20G A45U U48C | 0.22 |
| A20G A35U A57U | 0.22 |
| A20G A57C U60C G73U U76C | 0.09 |
| G19U U41C U78C | 0.28 |
| G19A C27U U51C | 0.13 |
| G19U C34U U49C | 0.05 |
| A20G A21G A28G C38U C44A A56U A65G | 0.03 |
| A20G A35G G55C | 1.2 |
| A20G A21G G52A U67C | 0.3 |
| A20G A35G U51C C68A U72A | 0.87 |
| A20C U43G U51A | 0.06 |
| A20G A45G U60C U66C U67C A77G | 0.24 |
| A18U U60A U72A | 0.74 |
| G19A A35U U49A A56G | 0.04 |
| G19U U51C A56U | 0.09 |

| Variant | self-cleavage |
| --- | --- |
| A20G A57G U60A A65U A77G | 0.12 |
| G19C U67C U74C | 0.25 |
| A20G A64G G70U U72C U74C | 0.15 |
| A20C G24C U74C U80A | 0.21 |
| A20G A35G U51A U58A U66C | 0.54 |
| A18U U54C U66C | 0.1 |
| A18U U69C U80C | 0.56 |
| G19A U41C A47G U48C A64G | 0.05 |
| A20G A28G A47G U67C U80A | 0.21 |
| A20G A21U G24C G30A U51G U58C U67C | 0.05 |
| G19A C27U U49C | 0.5 |
| A20C A35G A45U U69C | 0.18 |
| A20G A45G U58C U69C | 0.5 |
| A20G A45G A65G | 0.32 |
| G19U U54A U66C | 0.14 |
| A20G A21U A57G A64G | 0.25 |
| G19U A35U A57U A65G | 0.08 |
| G19U U26C U31A A35G A64G | 0.07 |
| G19U G30A U60C U74C | 0.13 |
| A18U U67C C81A | 0.25 |
| A20G A47G U76A | 0.44 |

| Variant | self-cleavage |
| --- | --- |
| A20G A21G A47G U66C U69C G73A | 0.11 |
| G19U A21U U31C G63A | 0.18 |
| G19U C27U A35U A56U A65G U69A | 0.07 |
| A20G A35U A45G U69C | 0.19 |
| G19U G24C A35G U66C A77G U80C | 0.13 |
| A20G A21G A77G | 0.4 |
| G19A U48C U69A | 0.11 |
| A20G A35G G63U | 1.22 |
| A20G A56G U69C | 0.26 |
| A20G A28U A75U | 0.71 |
| A20G C23U A64G U69C | 0.15 |
| G19A U25C A75U | 0.09 |
| G19U U41C G73A U74C | 0.61 |
| A20C U54A C59A A65G C68A | 0.04 |
| G19A A20G A28G U41A | 0.09 |
| A20G A35U U49C A56G A75G | 0.16 |
| A20G A28U G63A | 0.39 |
| G19U G30A A57G | 0.1 |
| A20G A47U A56G A65C | 0.34 |
| A20G A28G A75G U78A | 0.67 |
| G19U G22U U26C U51A | 0.11 |

| Variant | self-cleavage |
| --- | --- |
| A20G A21G C23U U67C | 0.05 |
| A20G A28U A45G U58A U67C U72C | 0.09 |
| A20G A28G U54C A64G U67C U69C U74A | 0.05 |
| A20G A45G A64U | 0.26 |
| A20G A28G U43C U60C | 0.08 |
| A20G A57G U58C U74A U76A | 0.31 |
| G19U U25C A28U A45G U69C | 0.05 |
| A20C U25C U31A | 0.1 |
| G19C G24C G52U U66A U74C | 0.08 |
| A20G A21G A56G C81A | 0.46 |
| G19A C40U C44G A56G A57U U66C | 0.11 |
| G19A A20G U54C U60C | 0.11 |
| A20G A21G A56G A57G U67C | 0.19 |
| A20G A28G A75G | 0.49 |
| A20C A47G U54C C62A | 0.29 |
| A20G A35G U48C U49C U60C U76C | 0.12 |
| G19C A28U C29U C34U U51A A57G A64U | 0.04 |
| A20G A28G U31C U69C | 0.16 |
| G19U U25C A64G | 0.16 |
| G19U A21G A45U A47U U60C G73A | 0.1 |
| A20G A21G C29U G53A | 0.09 |

Source: the RNAGym collection of RNA variant scans (doi:10.1093/nar/gkz1192)
